# In article PMC10726135:
# This is one part of the list. At the low end of the ranking the order means little. The protein was read in a cell extract, so binding may be indirect.
# Molecular target: T1, HNF4alpha8 (COS-7 nuclear extract) (UniProt P41235-5)
# T1 sequence: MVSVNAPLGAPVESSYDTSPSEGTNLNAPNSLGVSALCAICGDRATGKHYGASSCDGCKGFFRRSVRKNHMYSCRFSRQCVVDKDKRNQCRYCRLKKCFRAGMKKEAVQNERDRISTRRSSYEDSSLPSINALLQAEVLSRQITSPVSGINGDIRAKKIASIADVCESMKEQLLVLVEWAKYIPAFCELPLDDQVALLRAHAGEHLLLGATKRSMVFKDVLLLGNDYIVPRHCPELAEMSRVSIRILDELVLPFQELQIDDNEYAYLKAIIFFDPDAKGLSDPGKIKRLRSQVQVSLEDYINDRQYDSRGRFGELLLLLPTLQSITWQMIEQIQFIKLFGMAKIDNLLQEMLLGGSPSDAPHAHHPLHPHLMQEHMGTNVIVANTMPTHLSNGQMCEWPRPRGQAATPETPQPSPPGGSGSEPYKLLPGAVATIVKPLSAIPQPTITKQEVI
# Assay: protein-binding microarray
# Conditions: COS-7 nuclear extract on double-stranded Agilent 4x180k PBM; binding buffer, salt, pH and temperature not given; high values mean tight binding; double strand, one strand shown; sequences stand for … in …GCCTAGGGAGATTAGAGTATCGGTCGA
row,Sequence,binding signal (log2 normalized intensity)
1,ATGTTCCTTATCAGAGAGGCCTCACAGCCT,-1.37
2,ACATTCCAGGACCTTTGCTCATGTCCTCTT,3.3
3,TCATAAAGAACAGTTATTCTTAGCTTTCCT,-0.77
4,CTCCACCTACGCTACGCACCAGGCATACTC,-1.3
5,TCCCATCCCCAGAGCCCCCTTGATGCATCA,4.78
6,AGATAACAAACTTGATTGGGTATCAAGGGT,-0.598
7,CTGCAAAGAAGTCAAACTTTGGACCCACTG,6.61
8,TCGAGCAAGGTTCAGCACATTTATGAGGCC,0.054
9,ATGGTGGCCATTCTGATTTGATAAGATGTG,0.328
10,ACAAAACCTGTTTAGGATTAAACAAACAAG,-1.27
11,AACCAGATGGCCCTCTCCAAGGCGGTGTGG,-1.38
12,TTCTGCACCTGCCCTCAGGGAGCTCCAGCA,-1.18
13,GAAAGACCTTTTCCCTCCCTCCCAGTACAA,3.87
14,ACTTCAAAGCGCAGCGCGGGGCTCAAAGGC,-1.24
15,TTCCTGCTCATGCAGCTGCTGCCCAAAGGT,-1.37
16,TGTTCAAGACCAAAGGTCATGGCAACAGTT,4.96
17,CACACCCCTGGGGAAGGCAGGTCTCTCTCA,-1.38
18,TGCAGCCGAACCGGCACGGTTTCGTGGGGA,-1.28
19,GACAGATCAGAGAGATTTTCACATGGAATG,-0.886
20,TAGGGCCTTGCTATGGAGTGGACTTTGGCT,7.22
21,CTTTGTTAAAGCATATTTATTCAGGCCCAC,0.298
22,GGGGAGGGCAGGGTCAGAACCTGCCCATGA,0.0112
23,TCGTGATAGTGACCACCTGGTGGACCCAGC,4.2
24,TCTTGTTTGCTAAGTGAGAACACCGTGTAC,1.73
25,ATAAAGAACTCTAAGCAGCGAAGCTGTGTC,-1.27

row,Sequence,binding signal (log2 normalized intensity)
1,CCCGCAGCCCAGTCTTGGCCCCACCGGTCA,2.47
2,GTGTGTTTACATAACCTGCCCAAAGTGGGG,0.79
3,GGTTGAATTTCAGAGGGAAGAGGAAGCATC,-1.23
4,CAGGCAACCAAGGGTACACACCGTTAGCCA,-1.36
5,CACTGTATCAGGGAGATAGTCTGAGAGTCA,-1.25
6,GAATGCCTAGGGGGAAGCCCCTGCTTCCGG,-1.36
7,CAAAGTGCGACAGGGAGATTTCCTGGGAGA,-1.22
8,ACTCTAAAGGGAATAACCTTTGAGCTGAGT,5.63
9,AACTTGAAGCAGGCAGGCAGCTTCCAGGTG,-1.24
10,TTCTGCCCCTTGCTCCTGCTTGCTGGCTTT,1.35
11,ACAAGTGTGATTTTTAGATAGTGACTTGAA,0.56
12,CTGGGTTATGATCCTGGCTCTCCCACTTAT,0.654
13,AAAAGGGCAAAACTGTCACAAGAAAGGCAG,-1.31
14,AAGGCTGCAAGCAAACCTGCCCTTTGCTCC,6.42
15,GAGGGTAAATTCCTTCTTTCTCTCTCCCTT,1.61
16,CTCATAGCTCCAGAGCCACCGCTACCACAC,-1.32
17,AGGCTCCCTGGCCACAGGAATGTGACCTTC,6.28
18,AGTCCAACTTCTGCAGGCACCTGGCTCGAC,-1.25
19,CTTAATTTTCTCCTTTCCTCCTATGTCAAT,1.02
20,AGGGCCCTTCACTATTTTCAAAGGTCAACA,4.6
21,AGGGAGGTGATTGGTGAGTCTTAGGGAGGG,-1.45
22,CCCTCCCCCTGCATGAACCTTTGCTCCCTG,6.27
23,GCTCAGCGGTTACTTCGAGTACATTGTAAC,0.883
24,TTCCCACATTGCTCTCCCATAAGAATCCTT,0.0857
25,GGTGGTGAAAGTCAACAAGATTCCTTGAGC,-1.35

row,Sequence,binding signal (log2 normalized intensity)
1,GTCTAGATGCTGGGCAGCTTGTGTGCGTTT,1.16
2,GCGGATCCAACCTGTTCTTTTGAGCTGTGG,0.726
3,TCAACCCCCACTTCCTGACTTGGCCTGAAC,3.06
4,GCAAAGGTCAGGAGTTCCATTTAGCTTCAG,0.94
5,AGGCCGGTTGGCCAGGTTCCTCCACCGTCA,-0.785
6,ATTGATATCACCCTCCCTATCAGCTACTCA,1.85
7,TGAAAGTCTAAAGTTCAGTGAGATTAGGAA,4.28
8,TGTTATAGCTTTTAAAGAACTGGGCGAGCC,-0.625
9,ACTGGTAACTAGGTTAATGTGAACAGACAG,-0.0137
10,TGCTCCACCTTTGAAATCTCAAATAGCTGG,-1.07
11,GAAGATAAAGTGTCTCCCTCTGCAGCAAAG,-1.16
12,AGGTCAGGGAGTAGGTTTGATTTGTGAAAG,1.03
13,AACAAAATAATAGTTGACCTTTGAGAACCT,5.19
14,TACTGGGGGCCACCATATGTATGTGAAGCT,-1.29
15,GCCAAGGTACCCTGGCTTGTAATTCAAGAC,-0.977
16,CTGGGCCAAAGGGCATTCTGGAGTTTGGAA,3.69
17,CCAATCTAGCAAAAATCCTGCCAAACCAGT,-1.18
18,ACATACAGGGTCTAGCAGTGCAGCGGGGTC,2.99
19,CTAGCAATAACCACAAGGGGGGAGCACCTC,-1.05
20,GAGGTGACCCCAGGGCAAAGTGCATTGGAG,4.27
21,GCCAAAGGTCAGAGTTGAACCCTTGGGGCT,4.38
22,GCCAGAGAGATGTCAGCCCAAGATAACCTC,-1.07
23,TCCTTTTATCTTACATGCCTTATCTGGTTC,1.64
24,TAATTGCATTCTTTGATGTGCTGGGAGTCA,0.191
25,ATCAAGGACTGGGCTGGAACACAAAGAAAG,-1.32

row,Sequence,binding signal (log2 normalized intensity)
1,AGGCAGGCAGCTTCCAGGTGACAGTTAGGT,-0.969
2,GTGGGAGAAAGCTTTGGACTTTGGGCTGTG,6.47
3,ATGATTGACAGGTTATTTCAATTACAAAGC,0.0291
4,AAGAATGGGCAGAAGTAGGATAAGGGTAGG,-1.23
5,GGAATTTGGACTTCAGCCCAGGCTGATTAT,4.7
6,GGAAGTCCAACCTTTGCTCACTTGGGGGTG,3.03
7,TGGTCAAGGGTCAGTTTCTGAGAGTGGCAA,3.1
8,TGATAAAACAAATCTACAAATGTTTCAACA,-1.25
9,GAAGCGCACTAAGCCGAACGCTGGGGCAAA,-1.32
10,GAGACCCATTTTGGACTTTGACCTCCAAAA,11.3
11,CCAAGGAGACACCCCTGCAGAAGCGGGAGA,-1.34
12,TTCTCTCCCCCAACCCCACCTTCATTCTTC,4.32
13,TTCTCAAGGACCTAGAGCTATTCCTTTGAA,-1.17
14,ATGTCATGACCTTCATCAATCAGCCTGATA,0.623
15,TAATCTTCACTTGCCACATTTATTGTGAGA,0.789
16,GTCCAGGCCATGCAACAGCCTCCTCACTAG,-1.29
17,GGGCTGGGTAAAATGAGAATGAGACCTGCT,-1.2
18,TCCGTAACCTCACAGAAATCCAAAGGTCAA,5.78
19,ATTTACATCAAACACTCACTGGGAGAGAAA,-0.282
20,CCCTTCCCCGCTCTCCCCGCCCCCTCTCCG,5.95
21,ATGCAGTGGGTCAGTCTGAGATAGTCATTC,1.12
22,CTCATCCATGAATCCTGTGGTAGCCACTCT,-1.07
23,ACTTTGGCTACTCAGTTTTTTGGCCGTCTT,1.01
24,ACATTGTGTATGGACTGTAATACACAAGCA,1.16
25,ACGGGCCTGAAAACTGGAGGCCGCGACAAG,-1.22

row,Sequence,binding signal (log2 normalized intensity)
1,CAAACAACAGGCATCAACTCTATCATACTC,-1.35
2,GGTGTCCAGATTCCAGCCTCCTGCTCTGGG,-1.33
3,CTCAAAGTGCTTTTCAATCTTATTTTTACT,-1.16
4,TGGTCCTGGAACTCAAAGGTCAAATGACAG,4.49
5,AACAAGGATAGCGTCATCAGTCCAGGAGGG,-1.35
6,AAACCAACCCTGCCAAAGGTTAAAATTCCC,1.83
7,ACATGAGCCTCTTTATCTCTCTCTCTTTCT,0.312
8,AGTGACCCTGTCTCTCAGTCTCTGTGGGAG,1.23
9,AAGGTCACCCGTATTCCTTAGCTTATCGTC,0.265
10,ACCAGCAATTTTCAGGGTTAAAAGTTCTGC,1.05
11,GCATATGAGTAATGTGAAGACTTCGCTGGA,-1.22
12,GGAACACAATAGGAATTCAACCAATGTGGA,-1.15
13,GACTCATCTCCAAACGAGACTTTGGACTTT,9.58
14,CCGCAGCGCTGGTGGCTGCAAGGTTTGTGT,0.472
15,TCCCTGCAGTCAGGACTCTGGGACCGCAGG,-1.31
16,TTCTTTTCCCAAACCACGTTTCTGTGGTCA,1.21
17,GGTGCCAGAATTGCTGCTCCCCCTCCCAAA,4.91
18,GGTCACTCTTGCTATGCCTTAGCAAACAGA,-1.3
19,ACCAGGCCGGGTCACGTGGGTCCAGGGTCA,3.6
20,TACCCCCATACTTTATTTAGCTTTAGTTCA,1.43
21,AATGGAAGGCAGTGTTCCAAAGTGTAAAAG,0.755
22,CAGTATAGTTAGGGCCTTGCAGGGGGCCTC,-1.08
23,CTTTAAACTGGTGTGTCTTGCCTTTCCACC,0.447
24,CAGTGGCTGAGACAATGAGTGCTTCAGTCC,-0.568
25,CTAGGCTCCAGGGCACTGCCCTTTGGAACC,7.42

row,Sequence,binding signal (log2 normalized intensity)
1,CCAGATTCTCTCACTGCTCTGGCCACTCCC,-1.34
2,CCTGCAAGGATTGATCAGCACATGAAGGTC,1.8
3,CCTGCACCTGAACTTTGCTCTGTGACACAA,4.87
4,GAAGGCAGCCAAACAGAGGCTGAAATGGTT,-1.36
5,CACACACCTGTGCAAACATTGGTTGCAAAA,-1.27
6,TCCCTCCGTGGGGCTCCTTTGATCTCCGTG,0.909
7,TCTTGACATCTCTCTCTGCAGCTGAGTAGA,-0.659
8,AAAAGTCTCAGGGGCCTTGCAATGAGGCGA,-1.25
9,GTGACTACCTGGTTAAAAGGACAACCTTCG,-0.397
10,CAGAGCTGTCGTCCCAGGGCAAAGGTCACC,8.47
11,ACAGGAAAAAAAAAAATTACTGACCCTTGC,3.04
12,TCAGTTCCTATTTCAACATCCTCTCAGGTC,1.22
13,TAACAAACATTACTAACTGGACTTTATCTA,3.68
14,TTTCAACCCTGTGATGACCCCATACTTCAG,4.29
15,CTGTTGAACATTAACTCTCTGTGAGTGTGT,1.65
16,GAAAGGGGCCTCAGAGAAAGCCTGTTTGCT,-1.38
17,TGGAGGAGCTGAACTGTAACCTCAAAGGAG,-1.22
18,TTTGCCTGAACTTTAAACTGGTGTGTCTTG,2.95
19,GTGGCTAGAACCCAGGCACAGGTCCTACTC,-1.39
20,TCGGCTTCATTAGCAAATAACAAAGGGCAC,3.74
